Values marked as one replicate rest on one cluster of the flow cell; about a third of the high ones do not repeat.
Test system: ATP
Experiment: switch fluorescence ratio, 500 uM ATP over buffer (Cy3 cluster intensity, sum of 5 cycles each) (fold (ratio)); higher = stronger signal-on switching upon ATP binding; sequences stand for … in TCGTCGGCAGCGTCAGATGTGTATAAGAGACAGTTTTTTTTTTTTTTTTTTTTTTTTT…TC
Conditions: aptamer strand: ATP DNA aptamer (quencher-CACCTGGGGGAGTATTGCGGAGGAAGG + anchor), 100 nM annealed; ATP concentration: 500 uM; one replicate
Procedure, shortened: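 Values give the fluorescence ratio for each switch-domain sequence, averaged from per-cluster ratios of summed target-cycle to summed buffer-cycle Cy3 intensity. The Cy3-labelled switching-strand clusters sat on a modified Illumina MiSeq flow-cell, were annealed to 100 nM quencher-labelled ATP aptamer, and were imaged in selection buffer, then after 15 min with 500 uM ATP at 22 °C. Five cycles ran with NaOH stripping and re-annealing between them, and clusters outside 100-1000 RFU were excluded.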
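Also: ATP exposure 15 min at 22 °C before imaging.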

Sequence	switch fluorescence ratio
CGAAACGACA	1.03
GAGGCCCGGA	1.06
ACGATTAATC	1.07
TTCACCGGGG	1
ATAATGTGGC	1.01
GGACTGAGT	0.982
TAGGAATGAC	1.02
CTTTATTATC	0.961
TCTACTACAA	1.11
AACAACCCGT	1.03
TCCATGCAAT	4.25
GTCGTACCAC	0.991
GATCAGCCGG	0.992
GCCGGTCTTT	0.986
AGCGCGAAAA	0.968
AAACTCAGCA	1.19
TTGGCCGCC	1.01
TGAGCGGAGA	0.983
AGGGTAGCAG	1.03
GGAGCCATTA	1.08
ATGTTGAACG	1.02
AAACGGAATC	1.65
TTTTGACCAC	0.983
TGAGAAGATT	0.993
GAAGGCTGTG	0.984
CCGGTGGTTC	1.01

Sequence	switch fluorescence ratio
GGTTCCCGGT	1
AGAAGTAGAC	0.993
ACGGGTGGG	1.07
GACGGGATCG	0.832
GTTTAACATT	1.04
TCTGGCGCTA	1.44
TTATAACAT	0.992
GGCCGAGTGG	1.04
CAACAGACCT	1.36
GGACTGTATT	1.1
TAGCGTTAA	0.991
TAGAAGGGTA	0.983
CTCATGCTAG	1.03
TCTGGATATG	1.04
AGTTTTTCAT	0.992
CACAAATCTG	0.972
ATATCCTCAG	1.04
GTAGAATCAT	1
TGTTCATGAG	0.979
CTGAAACTTC	0.991
TTGGCATAAT	0.968
GCTCGGCAAG	1.51
TGACGCTAGC	2.05
GGGGCCGGAC	0.908
TTTAGTTAGC	0.948
GTGGGGTTT	1.01

Sequence	switch fluorescence ratio
TTTGCAAGT	1.45
GATATCGGTG	0.988
CGGGGAGCAC	1.05
CTATTGATGT	1.03
GTGATAATCG	1.04
AAGCCGGATT	0.989
ACTAGGCATT	0.929
ACCATGCACG	1.1
ATTGTT	0.945
GTAGTGGG	0.988
TAGGGGCAAG	1.03
AAGATAGATC	1.03
CCTAAACGGT	0.994
TGATTCTGAA	0.997
TGTCCCCCTT	1.73
AGCTGAAGTA	0.976
GAAAAGGAGT	1.01
CCCCGTTGTA	1.5
TAGGCTGGCC	0.965
TCCTGCTTTT	0.951
GGGATACGGG	2.54
AGTCCCGGCG	1.01
TGGAAACTTA	0.971
AGCCGGAGG	1.01
CAACATTTAC	1.11
TACGTGGGCA	0.993

Sequence	switch fluorescence ratio
GGCGAATCCG	1.01
TTCTCTACCT	1.07
CTGTATATGC	1.75
CGTAACTTCA	1.06
TATCTTTTGC	1.03
AAACTTCCGT	1.13
AATACTCACT	1.45
CTGCGCTACC	3.48
TGGGTCTAG	1
CCATTAGAAG	1.01
GGTACATTTG	1.01
CATGTGCATT	1.13
TAGTGTACAA	1.05
CGGTGTCCCT	1.01
CCCCTTCTGT	0.965
CTCTGCCATT	1.79
CCCTACTGGG	0.955
AAACGGATTT	1.13
GCGACAAATG	0.99
GGACATTCAG	1.01
ATATAGTGGA	0.984
TTAATTACTT	1.05
GGGGTGTACG	1
ATTTTCAGA	1.01
ATGTTATAAT	0.986
CGGTTAGCTC	0.982

Sequence	switch fluorescence ratio
TTCTTAGAGC	0.985
AACGTCTCC	1.11
TGCGGGCAAA	0.978
CGGTCTACTA	1.03
AGTTCTCGG	1.02
CCGTCGCGTA	1.15
TGTGTGTCAA	0.975
TTCAAAGCGT	1.03
GGAACCGCAT	3.55
AGGCCCGGA	0.965
AAAGATCAA	1.05
CCTAGTTCAA	1.22
ATCCTTCAAT	1.12
TAGTCCTAAT	0.986
GTTGATGAGC	0.972
ATTGAGAAA	1.02
GCGTCACTAG	1.03
CGTTTGCAAG	1.05
GATTAAGAGA	0.957
AATTTAGCAG	0.984
CATGTGAATT	0.953
TTTTAAATCG	1.01
GCATCATTGA	0.985
TCATGGTGCT	1.08
CGAAGACGAT	0.989
TTGCTAGGA	0.971

Sequence	switch fluorescence ratio
ACGACTAGGA	1.11
TTATCTGAGT	1.02
TGAGTTGATA	0.98
AACTTGCAT	1.06
GTTCTTCTCA	0.976
GCGTTAGGTA	1
CAAAACCCCG	1.07
CAGAAATGAA	1.12
TCCGGTACGA	1.18
GTGGCTATGC	1.02
AAGGGAACTT	1.02
TGATATTAAG	0.992
ACGTAGCTTG	1.11
AGAGGTAGTG	0.974
TGTTAAGTC	0.986
GTAGGAGATC	1.04
GATATTGTAC	1.04
TATCCCTCTG	1.01
AAATTAGCCT	1.14
GTAAAACCGC	1.1
GCCGAGGACA	1.05
ATAGCCCCCT	1.01
ATTCCACTCG	1.08
GTTAGGACGT	1.01
AACCTCTTCG	1.34
AGGAATAGAG	1.01

Sequence	switch fluorescence ratio
TATTCTTGTA	0.972
ACACGACCCG	1.08
AGGCATGG	1.1
GTCCGACGGT	1.18
CGTGGCCATT	1.01
TCAATTAGAC	1.02
GCCGAAAAGC	1.14
CTTGTTATGG	0.998
GCCGGTCGGC	0.989
TGGTAGAGTC	0.995
GTATTATCCT	1.01
AAAGGGTATT	1.03
GTACTGCAGC	1.02
GGCCGTAGGT	1.04
TTGTACAATT	1.01
AGGCCAAATG	0.959
GGCGGATCGT	0.996
AAGGTATAGT	1.01
GATAGATGAT	0.985
AGTCCGGCGT	1.02
ATCGTACCT	1.34
TCTGAGTTGT	0.969
ACTGGTCGGG	1
TTACATTCCC	0.991
GGGCTACCGG	1.17
TCAGTGTAGC	0.992

Sequence	switch fluorescence ratio
TCATTATGC	0.932
TGGAACTCAT	1.01
GTAGATCCGG	1.02
CGTTTAATGA	1.02
GGCTCACTTT	1.02
TTAGCCTAGA	1.02
AATGTCGTCG	0.991
GAGCGCGTTG	0.972
TTCTTGAACT	1.06
TAACGTGTCT	0.946
GTTTAGAAGA	0.984
GTTGCCAGGG	1.04
GTTATCTCAG	0.97
CACCGCACTT	2.27
ATATAAATAG	1.01
CCTGCTGCCT	1.05
AAAATGCCGT	1.01
CAGTCCCTAT	1
GGACGAATTA	1.04
